Assay results published in PubChem BioAssay AID1345083 (National Center for Advancing Translational Sciences (NCATS), 2018).
The campaign covered roughly 94,000 compounds. About 6,200 (6.6%) were called active. Inconclusive results, whose numbers are uncertain, are shown with a selection of clear calls. The call rests on the fitted dose curve; in most records, active means well fitted inhibition curve with a large enough effect; inconclusive means small, poorly fitted or top-dose-only effect; inactive means flat fitted curve, though single readings scatter. A potency beside an inconclusive call is a rough fit, not a confirmed value.

experiment: Cytotoxic Profiling in HEK 293 Cell Line of Diverse Libraries Using Quantitative High-Throughput Screening; conditions: HEK 293 viability, ATP luminescence (CellTiter-Glo), 48-72 h; activity change, negative = cytotoxicity: at 115 µM (top of the series) unless noted; series mostly up to 115 µM; further: nearly all actives have a fitted effect of over 60% in size
Outline: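 ATP-coupled CellTiter-Glo luminescence served as viability read-out, recorded 10 min after reagent addition at room temperature. HEK 293 cells, 250 cells/well, had been incubated with pintool-transferred compound for 48 or 72 hr at 37 degree Celsius.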
On the % scale 0 is the no-effect control and ±100 the full control effect; potency means the concentration at half of the fitted maximal effect; tags describe the fitted curve by direction and shape.

Row | Compound | Potency | activity change, negative = cytotoxicity | outcome
1 | COc1ccc(N2C(=O)CSC23CCN(C(=O)Nc2ccc([N+](=O)[O-])cc2)CC3)cc1 | active: 25.1 µM | – | –
2 | COC(=O)CNC(=O)c1ccc2oc(-c3cccnc3)nc2c1 | – | inactive: -5.34% | –
3 | CCOc1nccn2c(-c3ccc(CNC(=O)c4ccnn4C)cc3)cnc12 | inconclusive: 70.8 µM [inhibitor, partial curve, poor fit] | – | –
4 | COCC1CN(C)CC12CCN(Cc1ccc(OC)cc1)CC2 (stereo unspecified) | inconclusive: 79.4 µM [inhibitor, partial curve, poor fit] | – | –
5 | O=C1N[C@@H]2CCN(S(=O)(=O)c3ccccc3)[C@@H]2C(=O)N1c1ccc(F)cc1 | – | inactive: -5.9% [at 172 µM] | –
6 | O[C@@H]1CC(CNCC2CCCC2)(COc2ccc(C(F)(F)F)cn2)C[C@@H]1O (stereo partly specified) | inconclusive: 50.1 µM [inhibitor, partial curve, poor fit] | – | –
7 | COc1ccc(CNC(=O)C2CCCN2Cc2ccc(-c3cccc(OC)c3)cc2)cc1 (stereo unspecified) | active: 31.6 µM | – | –
8 | CCC(CC)C(=O)N1CCC(O)(c2csc(CN3CCc4ccccc4C3)n2)CC1 | inconclusive: 70.8 µM [inhibitor, full curve, poor fit] | – | –
9 | Cc1nn(C)c(C)c1C(=O)N1CC(n2cc(COc3ccc(F)cc3)nn2)C1 | – | inactive: 0.0481% | –
10 | COc1ccc(-c2nnc3ccc(N4CCC(c5ccccc5)CC4)nn23)nc1 | inconclusive: 112 µM [inhibitor, partial curve, poor fit] | – | –
11 | Cc1ncoc1C(=O)N[C@@H]1CN(Cc2ccccc2)C[C@H]1CN(C)C | inconclusive: 63.1 µM [inhibitor, partial curve, poor fit] | – | –
12 | O=C(NCCCO)c1ccc(-c2ncc3cnc(-c4cccc(F)c4)cn23)cc1 | inconclusive: 100 µM [inhibitor, partial curve, poor fit] | – | –
13 | O=C(c1ccc2c(c1)OCO2)N1CCC(N2CCOC2=O)CC1 | – | – | inactive
14 | CC1(c2noc(-c3cccnc3)n2)CCN(C(=O)CCC(=O)N2CC(=O)Nc3ccccc32)CC1 | inconclusive: 100 µM [inhibitor, single point] | – | –
15 | CCOc1ccc(C(=O)N2CCC3(CC2)N(C)C(=O)CS3(=O)=O)cc1 | – | inactive: -17.3% | –
16 | COc1ccc(OCC(O)CN2CCC(=O)N(Cc3ccccc3)Cc3ccccc32)cc1 (stereo unspecified) | inconclusive: 50.1 µM [inhibitor, partial curve, poor fit] | – | –
17 | O=C(NC1CCN(c2cnn(Cc3ccccc3)c(=O)c2)CC1)C1CCCCC1 | inconclusive: 100 µM [inhibitor, single point] | – | –
18 | Cc1ccsc1C(=O)N1CCC2(CC1)C(=O)N(c1cccc(F)c1)C2c1ccccc1 (stereo unspecified) | active: 25.1 µM | – | –
19 | COCCNC(=O)CN1C(=O)NC(c2ccccc2OC)C2=C1COC2=O (stereo unspecified) | – | inactive: 20.2% | –
20 | COc1ccc(CC(=O)Nc2ccc3ncnc(N4CCCC4)c3c2)c(Cl)c1 | inconclusive: 89.1 µM [inhibitor, single point] | – | –
21 | CN(Cc1ccccc1)Cc1cccn1C | – | inactive: 0.119% [at 230 µM] | –
22 | CC1(C)[C@H](Cc2cc(CN3CCOCC3)on2)C[C@@H]1N(Cc1ccco1)Cc1ccco1 | inconclusive: 31.6 µM [inhibitor, partial curve, poor fit] | – | –

Row | Compound | Potency | activity change, negative = cytotoxicity | outcome
23 | CC(C)CN1CCC[C@H]1c1nc(-c2ccnc(N3CCOCC3)c2)no1 | active: 89.1 µM | – | –
24 | O=C1CCN(S(=O)(=O)c2ccccc2)CCCN(Cc2cccc(OC(F)(F)F)c2)CCN1 | inconclusive: 56.2 µM [inhibitor, partial curve, poor fit] | – | –
25 | CCCc1cc(CNC(=O)c2ccc(N3C[C@@H](C)O[C@@H](C)C3)nc2)on1 | – | inactive: 4.63% | –
26 | COCCCNC(=O)CCCN1C(=O)COc2ccc(C(=O)COc3cc(C)ccc3C)cc21 | inconclusive: 56.2 µM [inhibitor, partial curve, poor fit] | – | –
27 | CC1(Cc2ccc3c(c2)OCO3)CCCN(CC(=O)NCc2ccco2)C1 (stereo unspecified) | active: 44.7 µM | – | –
28 | COc1ccc(-n2nc(C3CCN(Cc4ccccn4)CC3)[nH]c2=O)cc1 | active: 12.6 µM | – | –
29 | COc1ccc(NC(=O)N2CCC3(CC2)CN(c2ccccc2)C3=O)cc1OC | active: 39.8 µM | – | –
30 | O=C(c1ccc2c(c1)OCO2)N1CCC2(CC1)COc1ccccc1CN2 | – | inactive: -29.7% | –
31 | CCCc1ccc([S+](=O)([O-])N2CCC3(CC2)[C@@H](C(=O)OCC)[C@@H](O)C(=O)N3C(C)C)cc1 | inconclusive: 79.4 µM [inhibitor, single point] | – | –
32 | O=C(c1cccc(Cl)c1)N1CCC2(C1)NC(=O)N(Cc1ccc(Cl)cc1)C2=O (stereo unspecified) | inconclusive: 31.6 µM [inhibitor, partial curve, poor fit] | – | –
33 | O=C(CN1CC2CC(C1)[C@H]1CCCC(=O)N1C2)NC1CCCCC1 (stereo partly specified) | – | inactive: -12.8% | –
34 | Cc1ccc(C(=O)N2CCCC2C(=O)N2CCC(N3CCOCC3=O)CC2)cc1 (stereo unspecified) | – | – | inactive
35 | Cn1ncc2c(C(=O)N3CCC(C#N)CC3)cc(-c3ccccc3F)nc21 | inconclusive: 50.1 µM [inhibitor, partial curve, poor fit] | – | –
36 | CN(C)C(=O)c1cccnc1OC1CCN(C(=O)Cc2ccc(Cl)cc2)C1 (stereo unspecified) | inconclusive: 56.2 µM [inhibitor, partial curve, poor fit] | – | –
37 | COc1ccc(-c2cc(N3CCCC(NC(=O)c4ccc5[nH]ccc5c4)C3)n[nH]2)cc1 (stereo unspecified) | inconclusive: 50.1 µM [inhibitor, partial curve, poor fit] | – | –
38 | COc1cccc(-c2cc3c(=O)n(CCNC(=O)c4cc(F)cc(F)c4)ccn3n2)c1 | inconclusive: 25.1 µM [inhibitor, full curve, poor fit] | – | –
39 | Cc1cn2nc(C(=O)N3CCC(NC(=O)CCC4CCCC4)CC3)cc2c(=O)[nH]1 | – | inactive: -17.9% | –
40 | COc1ccccc1CCC(=O)N1CCC(N2CC3CC(C2)[C@H]2CCCC(=O)N2C3)CC1 (stereo partly specified) | – | inactive: -27.3% | –
41 | CCn1c2c(c(=O)n1-c1ccccc1)CCN(C(=O)c1ccc(Cl)cc1)C2 | inconclusive: 79.4 µM [inhibitor, partial curve, poor fit] | – | –
42 | COc1ccc(-c2nc(C)nc3c2CCN(CCC(C)C)CC3)cc1 | – | inactive: -11.4% | –
43 | O=C1CCN(CC(O)C(F)(F)F)c2cc3c(cc2CN1CC1CC1)OCO3 (stereo unspecified) | – | inactive: -9.11% | –
44 | CC(=O)N1CCCN(Cc2nc(-c3cccc(C(F)(F)F)c3)oc2C)CC1 | inconclusive: 39.8 µM [inhibitor, full curve, poor fit] | – | –

Row | Compound | Potency | activity change, negative = cytotoxicity | outcome
45 | Cc1ccccc1CCC1CCCN(S(=O)(=O)c2cccnc2)C1 (stereo unspecified) | inconclusive: 56.2 µM [inhibitor, partial curve, poor fit] | – | –
46 | Cc1noc(C)c1S(=O)(=O)N1CCCCC1c1nc(CCOCC2CCCC2)no1 (stereo unspecified) | inconclusive: 35.5 µM [inhibitor, partial curve, poor fit] | – | –
47 | Cc1cccc(OCC(=O)NC2CCN(c3cc(C(F)(F)F)ncn3)CC2)c1 | inconclusive: 79.4 µM [inhibitor, single point] | – | –
48 | CCCc1cc(C(=O)N2CCCC(Cc3ccccc3F)(C(=O)OCC)C2)n(C)n1 (stereo unspecified) | active: 17.8 µM | – | –
49 | N#Cc1cccc(-c2ccnc(N[C@H]3CO[C@H]4[C@@H]3OC[C@@H]4NC(=O)c3ccc4c(c3)OCO4)n2)c1 | inconclusive: 50.1 µM [inhibitor, partial curve, poor fit] | – | –
50 | O=C(C[C@H]1NC(=O)c2ccccc2NC1=O)Nc1cccc(C(F)(F)F)c1 | active: 44.7 µM | – | –
51 | O=C(NCc1cccc(Cl)c1)c1ccc2nnc(-c3ccoc3)n2c1 | – | inactive: -28.6% | –
52 | Cc1ccc(Nc2ccnc(N3CC4CCC(C3)N4CC(F)(F)F)n2)cc1 | active: 39.8 µM | – | –
53 | Cn1cc(CN2Cc3c(cc(N4CCOCC4)nc3-c3cccc(F)c3)C2=O)cn1 | active: 89.1 µM | – | –
54 | Cc1nc(CN2Cc3nc(Nc4ccccc4)ccc3OCC2=O)cs1 | inconclusive: 100 µM [inhibitor, partial curve, poor fit] | – | –
55 | COc1ccc(-c2ccnc3nc(CCc4ccccc4)nn23)cc1OC | inconclusive: 89.1 µM [inhibitor, single point] | – | –
56 | FC(F)(F)c1cccc(C2=NOC3(CCCN(CC4CCCC4)C3)C2)c1 (stereo unspecified) | inconclusive: 100 µM [inhibitor, partial curve, poor fit] | – | –
57 | O=C1NCCCCCN(C(=O)CN2CCOCC2)[C@H]2CCC[C@@H]12 | – | inactive: -9.45% | –
58 | NS(=O)(=O)CCCC(=O)N1CCC(c2ncc[nH]2)CC1 | inconclusive: 2.82 µM [inhibitor, full curve, poor fit] | – | –
59 | COCc1nc(C2CCCN(C(=O)Cc3cccc(OC)c3)C2)no1 (stereo unspecified) | – | inactive: 4.56% | –
60 | CN(c1ccccc1)c1ccc2c(n1)CN(Cc1ccc(F)cc1)C(=O)CO2 | inconclusive: 100 µM [inhibitor, partial curve, poor fit] | – | –
61 | CC(C)OCCCNC(=O)C1Cn2cccc2C(=O)N1Cc1ccccc1 (stereo unspecified) | inconclusive: 79.4 µM [inhibitor, single point] | – | –
62 | CCOC(=O)[C@@H]1CN([S+](=O)([O-])Cc2ccccc2)[C@H]2c3cccc(F)c3O[C@@H]12 | inconclusive: 79.4 µM [inhibitor, single point] | – | –
63 | O=[S+]1([O-])NCC2(CCCN(Cc3ccc(OC(F)(F)F)cc3)C2)Nc2ccccc21 (stereo unspecified) | inconclusive: 39.8 µM [inhibitor, full curve, poor fit] | – | –
64 | C[C@H](C(=O)N1CCOCC1)C1CC[C@@]2(C)Cc3sc(-c4ccccc4)nc3[C@@H](C)[C@@H]2[C@H]1O (stereo partly specified) | inconclusive: 50.1 µM [inhibitor, partial curve, poor fit] | – | –
65 | Cc1nccn1CCN(C)Cc1cc2n(n1)CCNC2 | – | inactive: -30.3% | –
66 | O=C(NC1CCCC1)c1c(OCC2CC2)cc(=O)n2c1CCOCC2 | inconclusive: 89.1 µM [inhibitor, single point] | – | –
